# Reference: the supplement of paper PMC8728848
# The other results are listed elsewhere or left out.
# How the values were obtained:
# Assay in all cases: glycan array binding signal (z-score within array); higher = stronger binding
# Settings in all cases: glycan notation: IUPAC condensed, linker removed
# [1] = biological target: Gal(b1-4)GlcNAc(b1-2)Man(a1-6)[GlcNAc(b1-2)Man(a1-3)]Man(b1-4)GlcNAc(b1-4)GlcNAc
# How it was run: (§1)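 Columns mapping to the same glycan were averaged after glycan names were converted to IUPAC-condensed notation. The data come from 3228 arrays in the Consortium for Functional Glycomics database, limited to those with an available protein sequence. Binding is reported as a within-array Z-score averaged across arrays of one protein sequence and across linkers.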
# [2] = biological target: Gal(b1-4)GlcNAc(b1-2)Man(a1-6)[Man(a1-3)]Man(b1-4)GlcNAc(b1-4)GlcNAc
# How it was run: as §1
# [3] = biological target: Gal(b1-4)GlcNAc(b1-2)[Gal(b1-4)GlcNAc(b1-4)]Man(a1-3)[Gal(b1-4)GlcNAc(b1-2)Man(a1-6)]Man(b1-4)GlcNAc(b1-4)GlcNAc
# How it was run: as §1
# [4] = biological target: Gal(b1-4)GlcNAc(b1-2)[Gal(b1-4)GlcNAc(b1-4)]Man(a1-3)[Gal(b1-4)GlcNAc(b1-2)[Gal(b1-4)GlcNAc(b1-6)]Man(a1-6)]Man(b1-4)GlcNAc(b1-4)GlcNAc
# How it was run: as §1
# [5] = biological target: Gal(b1-4)GlcNAc(b1-2)[Gal(b1-4)GlcNAc(b1-4)]Man(a1-3)[GlcNAc(b1-4)][Gal(b1-4)GlcNAc(b1-2)Man(a1-6)]Man(b1-4)GlcNAc(b1-4)GlcNAc
# How it was run: as §1
# [6] = biological target: Gal(b1-4)GlcNAc(b1-2)[Gal(b1-4)GlcNAc(b1-4)]Man(a1-3)[GlcNAc(b1-4)][Gal(b1-4)GlcNAc(b1-2)[Gal(b1-4)GlcNAc(b1-6)]Man(a1-6)]Man(b1-4)GlcNAc(b1-4)GlcNAc
# How it was run: as §1
# [7] = biological target: Gal(b1-4)GlcNAc(b1-2)[Gal(b1-4)GlcNAc(b1-6)]Man(a1-6)[Gal(b1-4)GlcNAc(b1-2)Man(a1-3)]Man(b1-4)GlcNAc(b1-4)GlcNAc
# How it was run: as §1
# [8] = biological target: Gal(b1-4)GlcNAc(b1-2)[Gal(b1-4)GlcNAc(b1-6)]Man(a1-6)[Gal(b1-4)GlcNAc(b1-2)Man(a1-3)]Man(b1-4)GlcNAc(b1-4)[Fuc(a1-6)]GlcNAc
# How it was run: as §1
# [9] = biological target: Gal(b1-4)GlcNAc(b1-2)[Gal(b1-4)GlcNAc(b1-6)]Man(a1-6)[GlcNAc(b1-4)][Gal(b1-4)GlcNAc(b1-2)Man(a1-3)]Man(b1-4)GlcNAc(b1-4)GlcNAc
# How it was run: as §1
# [10] = biological target: Gal(b1-4)GlcNAc(b1-2)[Gal(b1-4)GlcNAc(b1-6)]Man(a1-6)[GlcNAc(b1-4)][Gal(b1-4)GlcNAc(b1-2)[Gal(b1-4)GlcNAc(b1-4)]Man(a1-3)]Man(b1-4)GlcNAc(b1-4)[Fuc(a1-6)]GlcNAc
# How it was run: as §1
# [11] = biological target: Gal(b1-4)GlcNAc(b1-3)Gal(b1-3)GalNAc
# How it was run: as §1
# [12] = biological target: Gal(b1-4)GlcNAc(b1-3)Gal(b1-3)GlcNAc
# How it was run: as §1
# [13] = biological target: Gal(b1-4)GlcNAc(b1-3)Gal(b1-4)Glc
# How it was run: as §1
# [14] = biological target: Gal(b1-4)GlcNAc(b1-3)Gal(b1-4)GlcNAc
# How it was run: as §1
# [15] = biological target: Gal(b1-4)GlcNAc(b1-3)Gal(b1-4)GlcNAc(b1-2)Man(a1-3)[Gal(b1-4)GlcNAc(b1-3)Gal(b1-4)GlcNAc(b1-2)Man(a1-6)]Man(b1-4)GlcNAc(b1-4)GlcNAc
# How it was run: as §1
# [16] = biological target: Gal(b1-4)GlcNAc(b1-3)Gal(b1-4)GlcNAc(b1-2)Man(a1-3)[Gal(b1-4)GlcNAc(b1-3)Gal(b1-4)GlcNAc(b1-2)Man(a1-6)]Man(b1-4)GlcNAc(b1-4)[Fuc(a1-6)]GlcNAc
# How it was run: as §1
# [17] = biological target: Gal(b1-4)GlcNAc(b1-3)Gal(b1-4)GlcNAc(b1-2)[Gal(b1-4)GlcNAc(b1-3)Gal(b1-4)GlcNAc(b1-6)]Man(a1-6)[Gal(b1-4)GlcNAc(b1-3)Gal(b1-4)GlcNAc(b1-2)Man(a1-3)]Man(b1-4)GlcNAc(b1-4)GlcNAc
# How it was run: as §1
# [18] = biological target: Gal(b1-4)GlcNAc(b1-3)Gal(b1-4)GlcNAc(b1-2)[Gal(b1-4)GlcNAc(b1-3)Gal(b1-4)GlcNAc(b1-6)]Man(a1-6)[Gal(b1-4)GlcNAc(b1-3)Gal(b1-4)GlcNAc(b1-2)Man(a1-3)]Man(b1-4)GlcNAc(b1-4)[Fuc(a1-6)]GlcNAc
# How it was run: as §1
# [19] = biological target: Gal(b1-4)GlcNAc(b1-3)Gal(b1-4)GlcNAc(b1-3)Gal(b1-4)GlcNAc
# How it was run: as §1
# [20] = biological target: Gal(b1-4)GlcNAc(b1-3)Gal(b1-4)GlcNAc(b1-3)Gal(b1-4)GlcNAc(b1-2)Man(a1-3)[Gal(b1-4)GlcNAc(b1-3)Gal(b1-4)GlcNAc(b1-3)Gal(b1-4)GlcNAc(b1-2)Man(a1-6)]Man(b1-4)GlcNAc(b1-4)GlcNAc
# How it was run: as §1
# [21] = biological target: Gal(b1-4)GlcNAc(b1-3)Gal(b1-4)GlcNAc(b1-3)Gal(b1-4)GlcNAc(b1-2)Man(a1-3)[Gal(b1-4)GlcNAc(b1-3)Gal(b1-4)GlcNAc(b1-3)Gal(b1-4)GlcNAc(b1-2)Man(a1-6)]Man(b1-4)GlcNAc(b1-4)[Fuc(a1-6)]GlcNAc
# How it was run: as §1
# [22] = biological target: Gal(b1-4)GlcNAc(b1-3)Gal(b1-4)GlcNAc(b1-3)Gal(b1-4)GlcNAc(b1-2)[Gal(b1-4)GlcNAc(b1-3)Gal(b1-4)GlcNAc(b1-3)Gal(b1-4)GlcNAc(b1-6)]Man(a1-6)[Gal(b1-4)GlcNAc(b1-3)Gal(b1-4)GlcNAc(b1-3)Gal(b1-4)GlcNAc(b1-2)Man(a1-3)]Man(b1-4)GlcNAc(b1-4)[Fuc(a1-6)]GlcNAc
# How it was run: as §1
binder,measurement,setting,value
Epa1to9 (Candida glabrata) (protein) MGSSHHHHHHSSGLVPRGSHMTSSNDISLASKDPTTFPLGCSPDITTPKKGLSMELYSYDFRKKGSYPCWDAAYLDPNYPRTGYKSHRLLAKVDGVTGNINFYYHATKGCTPQLGHLPASYNYPKPLTMTNFTMLLYGYFRPKVTGFHTFTISADDLLFVNFGAGNAFDCCRRDSSADHFGNYQAYAIWGSKTAKDELTVHLDAGVYYPIRLFYNNRDYHGALSFTFKTESNENTVSDFSEYFFSLDDTEEGCPGLISYD,glycan array binding signal (z-score),[1],-0.101
same,glycan array binding signal (z-score),[2],-0.197
same,glycan array binding signal (z-score),[3],0.315
same,glycan array binding signal (z-score),[4],2.08
same,glycan array binding signal (z-score),[5],0.104
same,glycan array binding signal (z-score),[6],0.491
same,glycan array binding signal (z-score),[7],2.54
same,glycan array binding signal (z-score),[8],3.13
same,glycan array binding signal (z-score),[9],0.13
same,glycan array binding signal (z-score),[10],0.964
same,glycan array binding signal (z-score),[11],-0.14
same,glycan array binding signal (z-score),[12],-0.107
same,glycan array binding signal (z-score),[13],0.277
same,glycan array binding signal (z-score),[14],-0.064
same,glycan array binding signal (z-score),[15],0.178
same,glycan array binding signal (z-score),[16],0.45
same,glycan array binding signal (z-score),[17],0.64
same,glycan array binding signal (z-score),[18],0.816
same,glycan array binding signal (z-score),[19],-0.034
same,glycan array binding signal (z-score),[20],0.169
same,glycan array binding signal (z-score),[21],0.269
same,glycan array binding signal (z-score),[22],0.533
